Measured values: paper PMC6919601, “Identification of Plasmodium dipeptidyl aminopeptidase allosteric inhibitors by high throughput screening” (PLoS ONE, 2019)
Hit rate of the full screen: of about 110,000 compounds, about 230 (0.21%) showed an effect of 50% or more. The list shows a part of the results.

target: DPAP1 (Plasmodium falciparum, UniProt Q8IIJ9); assay: primary screen, percent inhibition; read by cleavage of a fluorogenic dipeptide substrate; higher = more effect of the substance; set-up: species or system P. falciparum D10 trophozoite lysates; single well
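Further: 30 min substrate incubation versus DMSO and 10 µM JCP410 controls.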

Sequence of DPAP1 (Q8IIJ9 whole entry, looked up): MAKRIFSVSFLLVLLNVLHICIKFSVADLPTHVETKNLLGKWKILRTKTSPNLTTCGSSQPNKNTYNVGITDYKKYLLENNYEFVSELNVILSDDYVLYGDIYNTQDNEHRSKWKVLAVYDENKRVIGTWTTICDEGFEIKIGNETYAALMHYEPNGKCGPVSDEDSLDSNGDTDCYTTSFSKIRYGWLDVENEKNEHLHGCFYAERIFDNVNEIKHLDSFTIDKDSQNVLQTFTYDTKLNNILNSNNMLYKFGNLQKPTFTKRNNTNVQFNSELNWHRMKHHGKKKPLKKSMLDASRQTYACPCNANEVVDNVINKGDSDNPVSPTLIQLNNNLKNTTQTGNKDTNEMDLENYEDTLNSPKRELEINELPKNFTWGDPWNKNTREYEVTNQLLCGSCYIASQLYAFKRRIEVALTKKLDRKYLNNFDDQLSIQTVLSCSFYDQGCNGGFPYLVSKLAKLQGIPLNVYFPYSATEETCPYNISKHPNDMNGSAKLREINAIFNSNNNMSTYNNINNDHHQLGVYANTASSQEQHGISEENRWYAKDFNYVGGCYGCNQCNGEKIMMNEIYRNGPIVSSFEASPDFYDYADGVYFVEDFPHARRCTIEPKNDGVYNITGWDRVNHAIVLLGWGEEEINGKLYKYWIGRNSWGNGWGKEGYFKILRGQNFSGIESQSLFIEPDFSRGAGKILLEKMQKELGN

| SMILES | % Inhibition @ 10 uM [%] |
| --- | --- |
| OCCNCc1cc(Br)ccc1OCc1ccc(Cl)cc1 | -6.92 |
| Cc1ccccc1-c1nnc2sc(NC(=O)C3CCCCC3)nn12 | -0.361 |
| COc1cc(CN2CCN(Cc3ccc(C)cc3C)CC2)cc(OC)c1OC | 13.5 |
| Cn1c(C(=O)N2CCC(C(=O)O)CC2)cc2sccc21 | 0.0882 |
| CCC(C)NCCC(c1ccccc1)c1ccccc1O (stereo not shown) | -3.74 |
| COc1cc(OC)cc(C(=O)NCCSc2ccccc2)c1 | -5.03 |
| COc1ccc(NC(=O)CCC(=O)O)cc1 | -1.86 |
| CSc1ccc(Cl)c(C(=O)NCCOc2cccc3cccnc23)c1 | -2.05 |
| Fc1ccc(N2N=C(c3cccs3)CC2c2cccs2)cc1 (stereo not shown) | 0.219 |
| CC1CCc2c(C(=O)NCc3ccccc3Cl)csc2C1 (stereo not shown) | -3.21 |
| Cc1ccc(S(=O)(=O)N(CC(=O)Nc2ccc3c(c2)OCCO3)c2cccc(Cl)c2)cc1 | 1.67 |
| CC(=O)Nc1ccc(S(=O)(=O)Nc2cc(Cl)ccc2Cl)cc1 | 3.05 |
| O=C(NCc1ccccc1)c1nc2ccccc2s1 | 5.17 |
| CC(C)SC1=NSC2=NC(=O)/C(=C\c3ccc(Br)o3)C(=N)N21 | -5.47 |
| CN1CCCN(Cc2ccsc2)CC1 | -0.294 |
| CCOC(=O)C1CCCCN1Cc1ccc(Br)cc1 (stereo not shown) | -3.65 |
| CCOC(=O)N1CCC(Nc2nc3ccccc3n3nnnc23)CC1 | 4.33 |
| CC(C)C(NS(=O)(=O)c1cccc2nsnc12)C(=O)N1CCn2c1nc1ccccc12 (stereo not shown) | -2.25 |
| N#Cc1ccc(NC(=O)CSc2ccc(Br)cc2)cc1 | -1.92 |
| COc1ccc2cc(-c3csc(NC(=O)CCC(=O)NCc4ccc(C)o4)n3)c(=O)oc2c1 | 0.569 |
| CC(c1ccccc1)N1CCC(=O)C2=C1CCCC2 (stereo not shown) | 2.54 |
| CC1(C)Cc2ccccc2C(NCC(=O)O)=N1 | 4.3 |

| SMILES | % Inhibition @ 10 uM [%] |
| --- | --- |
| CCOC(=O)C1CCCN(Cc2cc(Br)cs2)C1 (stereo not shown) | -0.507 |
| CNCC(=O)N1c2ccccc2CCc2ccc(NC(=O)OC)cc21 | -0.736 |
| COc1ccc(OC)c(NC(=O)CC(c2ccccc2)c2ccccc2)c1 | -5.69 |
| Cc1cccc(C(=O)Nc2cccnc2Cl)c1 | -1.61 |
| Cc1ccc2c(CNC3CCCCCC3)c(C(=O)O)n(Cc3ccc(F)cc3)c2c1 | 4.67 |
| CC(=O)Nc1ncc2c(n1)CC(c1ccc(C)cc1)CC2=O (stereo not shown) | -2.89 |
| O=C1C2CC=C(Cl)CC2C(=O)N1CCO (stereo not shown) | 29.2 |
| COc1ccc(OC)c(NC(=O)CN(c2cc(Cl)ccc2C)S(C)(=O)=O)c1 | 0.389 |
| Cc1cc(C)n2nc(NC(=O)C3CCCO3)nc2n1 (stereo not shown) | 14.8 |
| CC(CCc1ccccc1)NC(=O)Cn1c(=O)c2cccn2c2cccnc21 (stereo not shown) | -8.52 |
| Cc1cc(C)n(S(=O)(=O)c2ccccc2)c(=O)n1 | -5.33 |
| Fc1ccccc1N1CCN(Cc2c(F)cccc2Cl)CC1 | 2.1 |
| O=C1CSC(c2ccccc2)N1CCc1ccccc1 (stereo not shown) | -5.65 |
| CCOc1ccc(NS(=O)(=O)c2ccc(OC)cc2)cc1 | 5.12 |
| CC(C)(C)c1cc(C(=O)CSc2nnc(Nc3ccccc3)n2-c2ccccc2)cc(C(C)(C)C)c1O | 1.27 |
| CCOc1cc(C2C3=C(CC(C)(C)CC3=O)OC3=C2C(=O)CC(C)(C)C3)ccc1O | -3.69 |
| Clc1ccccc1N1CCN(C2CCN(CCc3ccccc3)CC2)CC1 | -3.27 |
| Cc1ccc(S(=O)(=O)N(CC(=O)N2CCOCC2)Cc2ccccc2)cc1 | -3.83 |
| OCCn1c(-c2ccc(F)cc2)cs/c1=N\c1ccc(F)cc1 | 2.73 |
| O=S(=O)(Nc1ccc2c(c1)CCC2)c1cccc2cccnc12 | -2.97 |
| COc1ccc(Cl)cc1C(=O)N1CCN(c2cccc(Cl)c2)CC1 | -0.795 |
| Cn1c2c(c(=O)n(C)c1=O)CN(CCN1CCNCC1)CN2 | -5.23 |

| SMILES | % Inhibition @ 10 uM [%] |
| --- | --- |
| CC(C)N(C(=O)C1CCCCC1C(=O)O)C(C)C (stereo not shown) | -2.92 |
| CC(C)(C)C(=O)NC(=S)N1CCOCC1 | -6.44 |
| CC(C(=O)NCCC1=CCCCC1)N1C(=O)c2ccccc2C1=O (stereo not shown) | 1.37 |
| O=C(NCCc1cccc(Cl)c1)c1cccnc1 | 3.95 |
| COC(=O)c1sccc1NC(=O)CN1CCOCC1 | -0.403 |
| COc1ccc(Br)cc1/C=C1\N=C(c2cccc(C)c2)OC1=O | 4.35 |
| CCOc1ccccc1C1C(C(=O)OC)=CN(CCC23CC4CC(CC(C4)C2)C3)C=C1C(=O)OC | -1.24 |
| COc1ccccc1-c1cc(=O)n(CC(=O)N2CCC(C(N)=O)CC2)c2c1CCCC2 | 3.59 |
| CC1(C)CC2(CCO1)NCCN1C(=O)CSC12 (stereo not shown) | 1.4 |
| CC(C)(C)c1ccc(C(=O)Nc2cccc(C#N)c2)cc1 | -1.51 |
| O=C(O)CC(NC(=O)C1CCCCC1)c1ccc(Cl)cc1 (stereo not shown) | -6.42 |
| Oc1nc(COc2nsnc2N2CCOCC2)nc2ccccc12 | 3.68 |
| COc1cc(-c2cc(-c3ccc(F)cc3)nc(N)c2C#N)ccc1O | 8.44 |
| C=C(C)CN(CC)Cc1ccc(-c2ccc([N+](=O)[O-])cc2)o1 | 1.9 |
| CCOc1ccc2c(=O)c(-c3ccccc3)coc2c1 | 5.37 |
| CCN(CC)C(=O)C1CCCN(C2CCCCCC2)C1 (stereo not shown) | -4.03 |
| COc1ccc(CCN2C(=O)C(O)=C(C(=O)c3cccs3)C2c2ccc(C)cc2)cc1 (stereo not shown) | -4.52 |
| Cc1occc1C(=O)Nc1ccc2c(c1)OCO2 | 1.92 |
| NC(=O)Cn1nnc2sc(-c3ccccc3)cc2c1=O | -1.16 |
| CC(NC(=O)c1cc(N)cc(C(=O)NC(C)c2ccccc2)c1)c1ccccc1 (stereo not shown) | 0.324 |
| C=CCN1C(=O)S/C(=C/c2cc(C)n(-c3cc(C)ccn3)c2C)C1=O | -5.51 |
| CCCOc1ccc(Cc2nn3c(=O)/c(=C\c4ccc(C)o4)sc3nc2=O)cc1 | 4.51 |

| SMILES | % Inhibition @ 10 uM [%] |
| --- | --- |
| Cn1c2c(c(=O)n(C)c1=O)C(c1ccccc1F)C(C#N)=C(N)O2 (stereo not shown) | -9.79 |
| Cc1ccc(S(=O)(=O)N2CCC(C(=O)Nc3ccc(C(=O)O)cc3)CC2)cc1 | -2.22 |
| C=CCN1C(=O)NC2(CCCCC2)C1=O | 1.33 |
| CCOc1ccccc1NC(=O)COc1ccccc1 | -0.123 |
| O=C(C1=COCCO1)N(c1ccccc1)c1ccccc1 | -3.66 |
| CNC(=S)NCCc1c(C)[nH]c2ccccc12 | -2.16 |
| CCN(CC)CCCNC(=O)C1CCN(c2nnc(-n3cccc3)s2)CC1 | -5.15 |
| O=C1NC(c2c[nH]c3ccccc23)Nc2sc3c(c21)CCCC3 (stereo not shown) | 7.92 |
| Cc1cc(CN2CCc3ccccc3C2)cs1 | 1.77 |
| O=C(CCSc1ccc(Cl)cc1)N1CCOCC1 | -6.05 |
| CCC(C(=O)NC(C)C12CC3CC(CC(C3)C1)C2)n1nc(C)n2c(cc3occc32)c1=O (stereo not shown) | -3.79 |
| Cc1ccc(-c2cc(C(=O)NCCCN3CCCC3)c3ccccc3n2)cc1C | -2.26 |
| O=C(Nc1cccnc1)c1sc2cccc(Cl)c2c1Cl | -6.36 |
| COc1ccc(Cc2nnc3c4cnn(Cc5ccccc5)c4ncn23)cc1 | -2.14 |
| OC(c1ccccc1)(c1cccs1)C1CN2CCC1CC2 (stereo not shown) | 2.69 |
| N#Cc1ccc(NC(=O)CSc2nc3ccccc3s2)cc1 | -6.62 |
| COc1ccc(OC)c(S(=O)(=O)c2ccc(C)c(C)c2)c1 | -0.0369 |
| O=Cc1ccc(-n2nncc2-c2ccccc2)cc1 | -2.62 |
| COc1cc2c(cc1OC)C(c1ccc([N+](=O)[O-])cc1)NCC2 (stereo not shown) | -5.5 |
| O=C(O)c1cc(S(=O)(=O)N2CCCCC2)ccc1Cl | 1.13 |
| CCCOc1ccc2oc(=O)c3c(c2c1)CCCN3C(=O)CN1CC(C)CC(C)C1 (stereo not shown) | 10.9 |
| Cc1oc2ccc(O)c(CN3CCN(C)CC3)c2c1C(=O)NCc1ccccc1 | 2.14 |

| SMILES | % Inhibition @ 10 uM [%] |
| --- | --- |
| CC(C)OCCCNc1nc2ccccc2c2nc(-c3ccncc3)nn12 | -7.99 |
| COc1cccc(OC)c1C(=O)Nc1cccc(C(F)(F)F)c1 | -1.36 |
| C=CCNC(=O)CN(Cc1ccccc1)S(=O)(=O)c1ccccc1 | -15.4 |
| CCc1nn(CC(=O)N2CCC(N3CCCCC3)CC2)c(=O)c2cc3sccc3n12 | 0.137 |
| CC(CC(=O)O)N[C@H](C)c1ccccc1 (stereo partly shown) | 0.968 |
| Fc1ccc(N2CCN(Cc3ccc(Cl)cc3Cl)CC2)cc1 | -1.92 |
| CCc1nc(C(C)(C)C)cc(C(=O)O)c1C(=O)O | 6.69 |
| CCOc1ccc(C(=O)N(Cc2nc(-c3ccc(C)cc3)no2)C(C)C)cc1OCC | -0.0593 |
| COc1cccc2c3c(c(O)nc12)CC(C)(C)O3 | 3.72 |
| Cc1cc(NCc2ccccc2Cl)n2nc(C)nc2n1 | 3.51 |
| Cc1cc(N2CCN(c3ccccc3)CC2)nc(-n2nc(C)cc2C)n1 | -3.83 |
| O=C(NC1CCCCC1)c1cnn2c(C(F)(F)F)cc(-c3ccco3)nc12 | 0.909 |
| COc1ccccc1C(=O)Nc1ccc(F)cc1F | -2.36 |
| Cc1cc2c(cc1C)NC(c1coc3ccccc3c1=O)C1=C(O)CC(C)(C)CC1=N2 (stereo not shown) | 3.05 |
| O=C(NC(Cc1c[nH]c2ccccc12)C(=O)O)c1ccc(C#CC2(O)CCCCC2)cc1 (stereo not shown) | 6.38 |
| CCOC(=O)c1c(-c2ccccc2)csc1NC(=O)COCc1cc(-c2cccs2)on1 | -2.96 |
| CCOCCCNC(=O)CCC(=O)n1ncc2c(C)cccc21 | 1.68 |
| CN(C)CCCN(CCCN(C)C)Cc1ccc(-c2cccc(Cl)c2)o1 | -1.64 |
